{
  "source": "PubChem BioAssay AID485313",
  "about": "(National Center for Advancing Translational Sciences (NCATS), 2010)",
  "note": "Hit rate of the full screen: of about 320,000 compounds, about 7,600 (2.4%) were called active. The shares of active, inactive and inconclusive entries below differ from those in the screen. Calls follow the shape of the dose curve; as a rule, active = well fitted activation curve with a large enough effect; inconclusive = small, poorly fitted or top-dose-only effect; inactive = no such curve, though single readings can be large or run the other way. Potencies of inconclusive entries are left out as doubtful fits. Potency is read from the fitted curve at half-maximal effect; tags tell the direction and shape of the fitted curve.",
  "data": [
    {"test": "qHTS Assay for NPC1 Promoter Activators; also: nearly all actives have a fitted effect of over 60% in size;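 as to activation: reporter is driven by a mutant NPC1 promoter; % of control where 0% means no effect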", "conditions": "Huh7 NPC1 promoter luciferase reporter, 24 h; series mostly up to 9.22 µM; activation: at the top concentration", "in_short": "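Readout is luciferase luminescence, reflecting NPC1 promoter activation in stably transfected Huh7 cells after 24 h compound exposure at 37 °C in reduced-serum medium with 10% FBS.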", "values": [
      {"smiles": "CC(=O)Nc1ccc(S(=O)(=O)N(Cc2ccco2)Cc2cc3ccccc3[nH]c2=O)cc1", "activation": "inactive: -2.16%"},
      {"smiles": "O=C(Nc1cccc(-c2ccc(N3CCOCC3)nn2)c1)c1ccc(F)cc1F", "Potency": "active: 2.82 µM"},
      {"smiles": "CC1CCN(C(=O)c2cc(-c3ccco3)on2)CC1", "Potency": "active: 1.78 µM"},
      {"smiles": "Cc1ccnc(NC(=S)NC(=O)c2cncc(Br)c2)c1", "Potency": "inconclusive [activator, single point]"},
      {"smiles": "COc1ccc(-c2cn(Cc3ccc(C)cc3)nn2)cc1", "Potency": "active: 3.98 µM"},
      {"smiles": "Cc1ccc(CNC(=O)Nc2ccc(Cl)cc2)cc1", "Potency": "inconclusive [activator, partial curve]"},
      {"smiles": "COc1ccc(-n2c(-c3ccc(Cl)cc3)c[n+]3c2CCCCC3)cc1", "activation": "inactive: -16.8%"},
      {"smiles": "CC(=O)NC(=S)Nc1sc2c(c1C(N)=O)CCC(C)C2", "note": "(stereo not given)", "Potency": "active: 2.82 µM"},
      {"smiles": "C#CCOCCOCCOCCNc1nc(N2CCN(C(=O)[C@H]([C@@H](C)CC)n3cc([C@@H](N)CC(C)C)nn3)CC2)nc(N2CCN(C(=O)[C@H](CCCCN)n3cc([C@@H](N)CO)nn3)CC2)n1", "activation": "inactive: 2.17%"},
      {"smiles": "c1ccc2c(c1)NC1(CCCCC1)n1c-2nc2ccccc21", "Potency": "inconclusive [activator, single point]"},
      {"smiles": "C[N+](C)(C)CC(=O)N1CCN(c2ccc3ccccc3n2)CC1", "activation": "inactive: 0.128%"},
      {"smiles": "O=C(Cc1nc2ccccc2[nH]1)c1cccc([N+](=O)[O-])c1", "Potency": "inconclusive [activator, single point]"},
      {"smiles": "Cc1cccc(OCCn2nnc3ccccc32)c1C", "Potency": "inconclusive [activator, partial curve]"},
      {"smiles": "CC(=O)COc1ccc2cc(-c3ccccc3)c(=O)oc2c1", "Potency": "active: 1.12 µM"},
      {"smiles": "CC(C)Oc1ccc(-c2cc(C(=O)NCCN3CCOCC3)c3ccccc3n2)cc1", "Potency": "inconclusive [activator, partial curve]"},
      {"smiles": "Cc1ccc(/C=N/NC(=O)c2ccco2)cc1", "Potency": "active: 1.78 µM"},
      {"smiles": "COc1cccc(CC(=S)N2CCOCC2)c1", "activation": "inactive: 6.25%"},
      {"smiles": "CC(C)(C)C1CCc2c(sc(NC(=O)c3ccco3)c2C(N)=O)C1", "note": "(stereo not given)", "Potency": "inconclusive [activator, single point]"},
      {"smiles": "CN(C(=O)CSc1nncc2ccccc12)C1CCCCC1", "Potency": "inconclusive [activator, partial curve]"},
      {"smiles": "CCOC(=O)C1(CCc2ccccc2)CCN(C2Cc3ccccc3C2)CC1", "Potency": "inconclusive [activator, single point]"},
      {"smiles": "Cc1cc(N2CCOCC2)nc2ccc(NC(=O)CCC(=O)N3CCN(c4ccccc4F)CC3)cc12", "Potency": "inconclusive [activator, single point]"},
      {"smiles": "CNc1oc(/C=C/c2ccccc2)nc1C#N", "Potency": "inconclusive [activator, single point]"},
      {"smiles": "Cc1cc(C)cc(NC(=O)CCc2c(C)nn(-c3ccc(N4CCCCC4)nn3)c2C)c1", "Potency": "inconclusive [activator, single point]"},
      {"smiles": "COC(=O)c1cccnc1Oc1ccccc1", "activation": "inactive: -0.941%"},
      {"smiles": "O=C(NCC1COc2ccccc2O1)c1ccc(Br)s1", "note": "(stereo not given)", "Potency": "inconclusive [activator, partial curve]"},
      {"smiles": "NC(=S)N=Nc1c(O)n(CCCl)c2ccc(Br)cc12", "activation": "inactive: -4.18%"},
      {"smiles": "Fc1ccc(COc2ccc(-c3nnco3)cc2)cc1", "Potency": "inconclusive [activator, partial curve]"},
      {"smiles": "CCOCCCNC(=O)c1ccc2c(c1)ncn2-c1cccc(C)c1", "activation": "inactive: 2.76%"},
      {"smiles": "O=C(COc1ccccc1)Nc1ccc(-c2ccc(N3CCOCC3)nn2)cc1", "Potency": "inconclusive [activator, single point]"},
      {"smiles": "c1ccc(OCc2nn3c(-c4ccccn4)nnc3s2)cc1", "Potency": "inconclusive [activator, partial curve]"},
      {"smiles": "CCN(CC)c1ccc(-n2c(C)c(C(C)=O)c(C(C)=O)c2C)cc1", "activation": "inactive: -1.38%"},
      {"smiles": "O=C(CSc1nnc(NC(=O)C2CC2)s1)Nc1ccccc1Cl", "activation": "inactive: -2.41%"},
      {"smiles": "O=S(=O)(c1ccc(Br)s1)N1CCN(c2ccc(F)cc2)CC1", "activation": "inactive: -3.68%"},
      {"smiles": "CCOC(=O)CC1(NC(=O)C2CCC(=O)N(CCc3ccccc3)C2)CCCCC1", "note": "(stereo not given)", "activation": "inactive: 0.838%"},
      {"smiles": "CCN(CC)C(=S)SCC(=O)c1ccc(Br)cc1", "Potency": "inconclusive [activator, partial curve]"},
      {"smiles": "O=C1c2ccccc2S(=O)(=O)N1CC1CC(c2ccccc2Cl)=NO1", "note": "(stereo not given)", "Potency": "active: 3.16 µM"},
      {"smiles": "Nc1n[nH]c(N)c1N=Nc1ccc2c(c1)OCO2", "Potency": "inconclusive [activator, single point]"},
      {"smiles": "O=C(Nc1ccc2c(c1)CCC2)c1ccccc1Br", "Potency": "active: 1.58 µM"},
      {"smiles": "Cn1cnnc1SCc1nc(N)nc(Nc2ccccc2)n1", "Potency": "inconclusive [activator, partial curve]"},
      {"smiles": "Cc1ccc(C(=O)CSc2ccccn2)cc1", "Potency": "inconclusive [activator, full curve, poor fit]"},
      {"smiles": "COCCNC(=S)NNC(=O)c1cc(-c2cccnc2)nc2ccccc12", "activation": "inactive: -1.91%"},
      {"smiles": "CCc1ccc(/C=N/NC(=O)Cc2cccn2C)cc1", "Potency": "inconclusive [activator, single point]"},
      {"smiles": "Cc1ccc(/C=N/Nc2nc(C(C)(C)C)cs2)o1", "Potency": "inconclusive [activator, single point]"},
      {"smiles": "CCCN1CCC(=O)N([C@H](CSc2ccccc2)CC(C)C)CC1", "Potency": "active: 3.16 µM"},
      {"smiles": "CN(C)c1ccc(N/C=C/C(=O)c2ccco2)cc1", "Potency": "active: 3.55 µM"},
      {"smiles": "CCOc1ccc(NS(=O)(=O)c2ccc3[nH]cc(C(=O)NCCOC)c(=O)c3c2)cc1", "Potency": "active: 2.51 µM"},
      {"smiles": "Cc1sc(NC(=O)c2cccc([N+](=O)[O-])c2)c(C(N)=O)c1-c1ccc(C(C)(C)C)cc1", "Potency": "inconclusive [activator, single point]"},
      {"smiles": "CCCCc1ccc(-c2ccc(Br)cc2O)nc1", "Potency": "active: 1.41 µM"},
      {"smiles": "COc1cc(Cl)ccc1OCc1cc(C(=O)N2CCCCCC2)no1", "activation": "inactive: 11.3%"},
      {"smiles": "O=C(Nc1ccc2c(c1)OCCO2)N1CCN(Cc2ccccc2)CC1", "Potency": "inconclusive [activator, single point]"},
      {"smiles": "O=C(CN1CCN(S(=O)(=O)/C=C/c2ccccc2)CC1)Nc1ccc(N2CCOCC2)cc1", "activation": "inactive: -4.53%"},
      {"smiles": "C=CCc1ccc(OCCOCCNCCOC)c(OC)c1", "Potency": "inconclusive [activator, single point]"},
      {"smiles": "Nc1ccc2c(c1)N=[N+]([O-])c1cc(N)ccc1C2", "activation": "inactive: -12.2%"},
      {"smiles": "CC(C)c1c(C(=O)N/N=C/c2cccnc2)nnn1-c1nonc1N", "activation": "inactive: -1.83%"},
      {"smiles": "CCOC(=O)CSc1nc2cc(C)ccc2cc1C#N", "Potency": "active: 0.708 µM"},
      {"smiles": "O=[N+]([O-])c1ccc(/C=C2\\CCC(C3=CCCC3)=C2N2CCOCC2)cc1", "Potency": "inconclusive [activator, single point]"},
      {"smiles": "CC(Oc1cc2oc(=O)c3c(c2cc1Cl)CCC3)C(=O)NCc1ccccn1", "note": "(stereo not given)", "activation": "inactive: -5%"},
      {"smiles": "CC(=O)N(/N=C1\\Sc2ccccc2C1=O)c1ccc(C)cc1C", "Potency": "inconclusive [activator, single point]"},
      {"smiles": "COc1ccc2c(c1OC)C(=O)N1c3ccccc3SC21", "note": "(stereo not given)", "Potency": "active: 2.51 µM"},
      {"smiles": "COC(=O)[C@@]12CCCN1[C@H](c1ccc(-c3ccc(Cl)c(Cl)c3)cc1)[C@H]1C(=O)N(C)C(=O)[C@H]12", "activation": "inactive: -0.146%"},
      {"smiles": "COc1cccc(C(=O)NC(=O)Nc2cc(C)on2)c1", "Potency": "inconclusive [activator, single point]"},
      {"smiles": "O=[N+]([O-])c1ccccc1/C=C/C=N/N1CCCCC1", "Potency": "inconclusive [activator, single point]"},
      {"smiles": "COc1ccccc1C(=O)Nc1ccc2c(c1)OCO2", "Potency": "inconclusive [activator, partial curve]"},
      {"smiles": "COc1ccccc1NC(=O)CSc1ccc(-c2ccc(-n3cccn3)cc2)nn1", "activation": "inactive: 13%"},
      {"smiles": "CCOC(=O)c1ccccc1NC(=O)CSc1nnc(Cc2cccn2C)n1-c1ccc(F)cc1", "activation": "inactive: 0.63%"},
      {"smiles": "CCCCC(=O)Nc1ccc(C(=O)OC2CCCCC2)cc1", "activation": "inactive: -3.18%"},
      {"smiles": "C/C(=N/NC(=O)c1cccs1)c1cccc(N)c1", "Potency": "inconclusive [activator, partial curve]"},
      {"smiles": "O=C(c1cc(-c2ccc(F)cc2)on1)N1CCCC1", "Potency": "active: 0.794 µM"},
      {"smiles": "Cc1csc(NC(=O)c2ccc(N3CCCC3=O)cc2)n1", "Potency": "inconclusive [activator, single point]"},
      {"smiles": "N#C/C(=C\\c1ccc(O)cc1)c1nc2ccccc2o1", "Potency": "inconclusive [activator, partial curve]"},
      {"smiles": "O=C(COC(=O)CNS(=O)(=O)c1c(F)cccc1F)NC(=O)NC1CCCCC1", "activation": "inactive: 3.5%"},
      {"smiles": "CCN(CC)S(=O)(=O)c1cccc(C(=O)Nc2ccc3c(c2)OCO3)c1", "Potency": "inconclusive [activator, partial curve]"},
      {"smiles": "NC(=S)Cc1nc(-c2ccc(Cl)cc2)cs1", "activation": "inactive: 9.42%"},
      {"smiles": "Cc1ccc(-c2nnc(NCc3nc4ccccc4[nH]3)c3ccccc23)cc1S(=O)(=O)N(C)C", "activation": "inactive: -0.512%"},
      {"smiles": "CC(=O)c1cccc(OCc2cc(C(=O)NCc3nc(C)c(C)s3)no2)c1", "Potency": "inconclusive [activator, single point]"},
      {"smiles": "CCn1nc(NC(=O)c2ccncc2)c2cc3ccc(C)cc3nc21", "activation": "inactive: 3.78%"},
      {"smiles": "Nc1c(C(=O)Nc2cccc(F)c2)nnn1-c1cccc(C(F)(F)F)c1", "Potency": "inconclusive [activator, partial curve]"},
      {"smiles": "O=C(CN1CCN(CN2C(=O)NC3(CCCCCC3)C2=O)CC1)Nc1ccc(F)cc1", "activation": "inactive: -0.301%"},
      {"smiles": "CCn1c(=O)c(-c2nc3ccccc3[nH]2)c(O)c2ccccc21", "Potency": "inconclusive [activator, single point]"},
      {"smiles": "COc1ccnc(Oc2ccc3ccccc3c2)c1C#N", "Potency": "inconclusive [activator, partial curve]"}
    ]}
  ]
}
